Measurements taken from the supplement of paper PMC10126150.
Values marked as one replicate rest on one cluster of the flow cell; about a third of the high ones do not repeat.

Tested on: ATP
Test: switch fluorescence ratio, 500 uM ATP over buffer (Cy3 cluster intensity, sum of 5 cycles each) (fold (ratio)); higher = stronger signal-on switching upon ATP binding; sequences stand for … in TCGTCGGCAGCGTCAGATGTGTATAAGAGACAGTTTTTTTTTTTTTTTTTTTTTTTTT…TC
Settings: aptamer strand: ATP DNA aptamer (quencher-CACCTGGGGGAGTATTGCGGAGGAAGG + anchor), 100 nM annealed; ATP concentration: 500 uM; one replicate
Outline: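 Imaging in selection buffer was followed by imaging after 15 min with 500 uM ATP at 22 °C, for Cy3-labelled switching-strand clusters annealed to 100 nM quencher-labelled ATP aptamer on a modified Illumina MiSeq flow-cell. Five of these buffer/ATP cycles ran, separated by NaOH stripping and re-annealing. The fluorescence ratio per cluster is summed target-cycle over summed buffer-cycle Cy3 intensity, averaged per switch-domain sequence; clusters outside 100-1000 RFU were removed.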
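Further: ATP exposure 15 min at 22 °C before imaging.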

Q: Which switch fluorescence ratio does the source give for ATCTGTCAAT here?
A: 1.21

Q: With ATAGTAGGAG as the sequence, how does the switch fluorescence ratio read?
A: 0.964

Q: With AACAAAACAC as the sequence, how does the switch fluorescence ratio read?
A: 1.15

Q: CACCTAGTCT was tested. Which switch fluorescence ratio did it give?
A: 1.06

Q: ACTTAGTGGA was tested. Which switch fluorescence ratio did it give?
A: 1.01

Q: CTATGATTA was tested. Which switch fluorescence ratio did it give?
A: 0.956

Q: With AATGCTACCG as the sequence, how does the switch fluorescence ratio read?
A: 1.01

Q: How did the switch fluorescence ratio turn out when ACCTTAAATT was run?
A: 1.11

Q: How did the switch fluorescence ratio turn out when GGGTACCAAT was run?
A: 0.964

Q: Which switch fluorescence ratio does the source give for TAACAGGGTC here?
A: 1.02

Q: How did the switch fluorescence ratio turn out when TTCAAAGCAT was run?
A: 3.85

Q: How did the switch fluorescence ratio turn out when ACATCGGTCG was run?
A: 1.04

Q: How did the switch fluorescence ratio turn out when CACAACAGCA was run?
A: 1.02

Q: With GTTACATGGG as the sequence, how does the switch fluorescence ratio read?
A: 1.05

Q: For TAGGGTTTA, which switch fluorescence ratio is on record?
A: 0.979

Q: For TAGTCAGCGC, which switch fluorescence ratio is on record?
A: 0.989

Q: With AAACTATGCC as the sequence, how does the switch fluorescence ratio read?
A: 1.06

Q: How did the switch fluorescence ratio turn out when CACTTAGCTA was run?
A: 1.06

Q: Which switch fluorescence ratio does the source give for GAATGTAAAA here?
A: 0.976

Q: TCAGGGGCTC was tested. Which switch fluorescence ratio did it give?
A: 1.04

Q: With CGCCGGACGT as the sequence, how does the switch fluorescence ratio read?
A: 1.01

Q: CTGGTACATA was tested. Which switch fluorescence ratio did it give?
A: 1.05

Q: With CCAATTCGGT as the sequence, how does the switch fluorescence ratio read?
A: 1.05

Q: GCGTATTAAC was tested. Which switch fluorescence ratio did it give?
A: 1.03

Q: With AGTTGGCTA as the sequence, how does the switch fluorescence ratio read?
A: 1.03

Q: For AATGAAGTAG, which switch fluorescence ratio is on record?
A: 0.935

Q: With TAGGATTACG as the sequence, how does the switch fluorescence ratio read?
A: 0.982

Q: For GCACTCGG, which switch fluorescence ratio is on record?
A: 0.948

Q: How did the switch fluorescence ratio turn out when AACGAGTTAT was run?
A: 1.01

Q: Which switch fluorescence ratio does the source give for TCGGAGTGCA here?
A: 1.03

Q: With TAATGTTCTA as the sequence, how does the switch fluorescence ratio read?
A: 0.965

Q: For GTAATCTTCG, which switch fluorescence ratio is on record?
A: 1.12

Q: ATTATAACGT was tested. Which switch fluorescence ratio did it give?
A: 1.02

Q: How did the switch fluorescence ratio turn out when TGGGCATAGG was run?
A: 1.03

Q: For TCTCTGCGGG, which switch fluorescence ratio is on record?
A: 1.05

Q: GAACCCAACG was tested. Which switch fluorescence ratio did it give?
A: 1.21

Q: CTGAGGAATG was tested. Which switch fluorescence ratio did it give?
A: 1.02

Q: Which switch fluorescence ratio does the source give for CTTTGGGCAT here?
A: 1.01

Q: How did the switch fluorescence ratio turn out when ATCGGGGTTT was run?
A: 1.02

Q: Which switch fluorescence ratio does the source give for TTCAACCCTC here?
A: 1.02

Q: With GCCACACACT as the sequence, how does the switch fluorescence ratio read?
A: 1.4

Q: GGTAGACGGC was tested. Which switch fluorescence ratio did it give?
A: 1.08

Q: AAGCGGGCTG was tested. Which switch fluorescence ratio did it give?
A: 0.982

Q: TATCGAGGCG was tested. Which switch fluorescence ratio did it give?
A: 1.06

Q: With CAAAGCTTTC as the sequence, how does the switch fluorescence ratio read?
A: 1.72

Q: For TGAGCATAGG, which switch fluorescence ratio is on record?
A: 1.04

Q: GAGTTAAGCT was tested. Which switch fluorescence ratio did it give?
A: 0.955

Q: How did the switch fluorescence ratio turn out when GGCACATAGG was run?
A: 1.39

Q: With TAGTGGAAA as the sequence, how does the switch fluorescence ratio read?
A: 1.01

Q: For ATTACCCAAC, which switch fluorescence ratio is on record?
A: 1.2

Q: CCTCTATGCT was tested. Which switch fluorescence ratio did it give?
A: 1.97

Q: TCATCAGTTT was tested. Which switch fluorescence ratio did it give?
A: 1.04

Q: How did the switch fluorescence ratio turn out when CAGCCCAGTC was run?
A: 1.05

Q: With CACCTTTGCC as the sequence, how does the switch fluorescence ratio read?
A: 1.08

Q: With CAAGGTTATC as the sequence, how does the switch fluorescence ratio read?
A: 0.977

Q: Which switch fluorescence ratio does the source give for ACCAGTTGGC here?
A: 1.01

Q: For AAGGCGATGG, which switch fluorescence ratio is on record?
A: 1.06

Q: With GCGCCCCTTT as the sequence, how does the switch fluorescence ratio read?
A: 0.978

Q: With TTAGCCGTC as the sequence, how does the switch fluorescence ratio read?
A: 1.01

Q: Which switch fluorescence ratio does the source give for TTCTTATGTA here?
A: 1.03

Q: With GCGTGCAATT as the sequence, how does the switch fluorescence ratio read?
A: 0.99

Q: GTGATCAGCG was tested. Which switch fluorescence ratio did it give?
A: 0.999

Q: With AAAAGGCAGA as the sequence, how does the switch fluorescence ratio read?
A: 0.979

Q: For TGGACGGAGG, which switch fluorescence ratio is on record?
A: 0.981

Q: How did the switch fluorescence ratio turn out when GATAGGTCTC was run?
A: 1.01

Q: With ATTTGCTTTG as the sequence, how does the switch fluorescence ratio read?
A: 1

Q: With GGCCAGTTTT as the sequence, how does the switch fluorescence ratio read?
A: 1.02

Q: ATTAAGTGCT was tested. Which switch fluorescence ratio did it give?
A: 1.06

Q: How did the switch fluorescence ratio turn out when AACGGTCCCT was run?
A: 1.03

Q: For AGTTAAGGAA, which switch fluorescence ratio is on record?
A: 1.02

Q: With TGAGCGTTCT as the sequence, how does the switch fluorescence ratio read?
A: 1

Q: How did the switch fluorescence ratio turn out when AAGATCGTC was run?
A: 1.01

Q: How did the switch fluorescence ratio turn out when AGTCGCAAGT was run?
A: 1.06

Q: How did the switch fluorescence ratio turn out when AGGGTTAATA was run?
A: 1.01

Q: Which switch fluorescence ratio does the source give for TCGAGTGATC here?
A: 1.06

Q: How did the switch fluorescence ratio turn out when CTTGGTGATC was run?
A: 1.05

Q: For GTGCTTAGTG, which switch fluorescence ratio is on record?
A: 0.984

Q: With TGCTAGTACA as the sequence, how does the switch fluorescence ratio read?
A: 1.02

Q: For TTTTATAGCC, which switch fluorescence ratio is on record?
A: 0.994

Q: How did the switch fluorescence ratio turn out when GTTCAAGCTC was run?
A: 0.998

Q: How did the switch fluorescence ratio turn out when CGATCAGAGT was run?
A: 1.05

Q: Which switch fluorescence ratio does the source give for TCCGATTATT here?
A: 1.04

Q: With TCAACACTTT as the sequence, how does the switch fluorescence ratio read?
A: 1

Q: With TCTTTCAACA as the sequence, how does the switch fluorescence ratio read?
A: 0.996

Q: How did the switch fluorescence ratio turn out when CATGCTGATG was run?
A: 0.999

Q: With CTAAGACATG as the sequence, how does the switch fluorescence ratio read?
A: 1.04

Q: GGATCCACGT was tested. Which switch fluorescence ratio did it give?
A: 1.05

Q: GTGGCGGGTG was tested. Which switch fluorescence ratio did it give?
A: 1.02

Q: How did the switch fluorescence ratio turn out when ACGATTGTCA was run?
A: 1.03

Q: Which switch fluorescence ratio does the source give for CGTACGGAC here?
A: 1.7

Q: For TTAAAGGAGA, which switch fluorescence ratio is on record?
A: 1.02

Q: Which switch fluorescence ratio does the source give for ATTTTCGCCT here?
A: 0.963

Q: With TTAGAGCTGC as the sequence, how does the switch fluorescence ratio read?
A: 1.18

Q: With AATGGTATAA as the sequence, how does the switch fluorescence ratio read?
A: 0.996

Q: CGAATATCGG was tested. Which switch fluorescence ratio did it give?
A: 0.986

Q: With GCTAGCTCGA as the sequence, how does the switch fluorescence ratio read?
A: 0.952

Q: For TTACATTGAT, which switch fluorescence ratio is on record?
A: 0.999

Q: For GCAGAGTGGC, which switch fluorescence ratio is on record?
A: 0.999

Q: How did the switch fluorescence ratio turn out when AGAGGCTCCC was run?
A: 1.04

Q: With AGAGGACCAG as the sequence, how does the switch fluorescence ratio read?
A: 0.975

Q: Which switch fluorescence ratio does the source give for CGGCAAACGC here?
A: 1.44

Q: With CGGTAGAAGC as the sequence, how does the switch fluorescence ratio read?
A: 1.02

Q: Which switch fluorescence ratio does the source give for CCAGCCGGTC here?
A: 0.997

Q: How did the switch fluorescence ratio turn out when CCCACCAGG was run?
A: 4.14

Q: How did the switch fluorescence ratio turn out when CGGCCTAGGA was run?
A: 1.01

Q: How did the switch fluorescence ratio turn out when GGTCTCCTTC was run?
A: 0.981

Q: Which switch fluorescence ratio does the source give for CGATAGCCGG here?
A: 1.01

Q: ACACGTATTC was tested. Which switch fluorescence ratio did it give?
A: 1.05

Q: Which switch fluorescence ratio does the source give for GCTTATTGGC here?
A: 1

Q: For GAGCCGGCCG, which switch fluorescence ratio is on record?
A: 1.01

Q: CGATTTATTT was tested. Which switch fluorescence ratio did it give?
A: 0.924

Q: With CTGGGACGGT as the sequence, how does the switch fluorescence ratio read?
A: 0.984

Q: For GGAATCACAC, which switch fluorescence ratio is on record?
A: 0.965

Q: Which switch fluorescence ratio does the source give for CCGAAAGTAT here?
A: 1.34

Q: For AAACCCGTCA, which switch fluorescence ratio is on record?
A: 0.991

Q: Which switch fluorescence ratio does the source give for CGTTATTCGC here?
A: 0.968

Q: For CATTGTGGT, which switch fluorescence ratio is on record?
A: 0.985

Q: For AAACAGCAAG, which switch fluorescence ratio is on record?
A: 1.05

Q: For GCAATAAGGT, which switch fluorescence ratio is on record?
A: 1.08

Q: For CTGGTTTGCT, which switch fluorescence ratio is on record?
A: 0.966

Q: For AGATGAAGGC, which switch fluorescence ratio is on record?
A: 0.983

Q: Which switch fluorescence ratio does the source give for TAGGATGTCC here?
A: 1.04

Q: With GATCGCAGAT as the sequence, how does the switch fluorescence ratio read?
A: 1.02

Q: For ACCAGAGCTT, which switch fluorescence ratio is on record?
A: 1.07

Q: With TTGGTCAGAG as the sequence, how does the switch fluorescence ratio read?
A: 1.04

Q: How did the switch fluorescence ratio turn out when CTTAGCTGTC was run?
A: 1.02

Q: With GCTGTGCGA as the sequence, how does the switch fluorescence ratio read?
A: 1.06

Q: For CCCCGGACAA, which switch fluorescence ratio is on record?
A: 3.21

Q: For ATACCCGACG, which switch fluorescence ratio is on record?
A: 1.34

Q: With CGATATCGAA as the sequence, how does the switch fluorescence ratio read?
A: 0.977

Q: For ATCTTTCGG, which switch fluorescence ratio is on record?
A: 1.03

Q: Which switch fluorescence ratio does the source give for GCGGAGGCTC here?
A: 0.982

Q: With AAAGTTGTG as the sequence, how does the switch fluorescence ratio read?
A: 0.931

Q: With TCTAACGGCG as the sequence, how does the switch fluorescence ratio read?
A: 1

Q: How did the switch fluorescence ratio turn out when CTGGAGATTT was run?
A: 1.02

Q: TACAGTTTTC was tested. Which switch fluorescence ratio did it give?
A: 1.01

Q: Which switch fluorescence ratio does the source give for CATGGGCTT here?
A: 1.03

Q: For AGGGTCTCAA, which switch fluorescence ratio is on record?
A: 0.991

Q: TGCGTCTAAA was tested. Which switch fluorescence ratio did it give?
A: 0.98

Q: Which switch fluorescence ratio does the source give for AAATTGCGCG here?
A: 0.959

Q: For TTTTTAG, which switch fluorescence ratio is on record?
A: 1.01

Q: Which switch fluorescence ratio does the source give for GCTTCTGTTC here?
A: 1.05

Q: For GGGTTTTAAT, which switch fluorescence ratio is on record?
A: 1.02

Q: For TCGGGAGATA, which switch fluorescence ratio is on record?
A: 0.993

Q: GTGGCCGTGG was tested. Which switch fluorescence ratio did it give?
A: 0.987

Q: AGAGACCGAA was tested. Which switch fluorescence ratio did it give?
A: 1.01

Q: For GAAAGGGCAC, which switch fluorescence ratio is on record?
A: 1

Q: How did the switch fluorescence ratio turn out when GATCATATTG was run?
A: 0.946

Q: GCGGCGTCTA was tested. Which switch fluorescence ratio did it give?
A: 1.06

Q: For CGGCGATGAC, which switch fluorescence ratio is on record?
A: 2.15

Q: For TACTGTCATT, which switch fluorescence ratio is on record?
A: 1.09

Q: How did the switch fluorescence ratio turn out when CTGGGGTCTT was run?
A: 0.966

Q: For GGCACGTCTG, which switch fluorescence ratio is on record?
A: 1.02

Q: With GGAGATCCG as the sequence, how does the switch fluorescence ratio read?
A: 0.947

Q: How did the switch fluorescence ratio turn out when CGCCTGGGGG was run?
A: 1.12

Q: Which switch fluorescence ratio does the source give for GGTAATTGAT here?
A: 1.03

Q: How did the switch fluorescence ratio turn out when TATAAACATT was run?
A: 1.05
